The source gives no read counts; variants with many changes may rest on few reads.
B1: LINE1-mini (parent)
chain: GGCAGAGCUCAACACAGCGUGGCAAAGUGGCUGUGGCUAGACUGCC

Variants of: B1
Test: self-cleavage, relative activity (ratio to wild type); higher = more cleavage; in vitro, sequencing; the parent is a self-cleaving ribozyme

| Variant | self-cleavage |
| --- | --- |
| GGCAGAGCGCAACGCAGCGUGGGAAAGUGGCUGUGGCUAGACUGCC | 0.06 |
| GGCAGAGUUUAGCACAGCGUGGCAAAGUGGCUGUUCCUAGACUGCC | 0.02 |
| GGCAGAGCUAAACACAGCGUGGCAAAGUGGCUCUCGCUUGUCUACC | 0 |
| GUCAGAGCUCAACACAGCGUGGCAACGUGGCUGUGGCUAGACUGCG | 0.09 |
| GGCAGAGCUCAUCACAGCGUGGCGAAGCGGCUGUGGCUAGACUGCC | 0.22 |
| GGCAGAGCUCAAGACAGCGAGUCAAAGUGGCUGUGGCUAGACUGCA | 0.04 |
| GGCAGAGCUCAACACAGCGUGGCAAAGUGUCUUUGGGUAGACUGCC | 0.02 |
| GGGAGAGCUCCACACCGCGUGGCAAAGUGGCUGUGGCUAGCCUGCC | 0 |
| GACAGAGGUCAACACAGCGUGGCAAAGUGGCUGUGGCUAGGCUCCC | 0.27 |
| GACCGAGCUCAACACAGCGUGGUAAAGUGGCUGUGGCUAGACUGCC | 0.26 |
| GGCAGAGGUCAACACAGCGUGGCAAAGUGGCUGUGGCUAGGAUGCC | 0.14 |
| GUCACAGCUCUACACAGCGUGGCAAUGUGGCUGUGUCUAGACUGCC | 0.02 |
| GGCAGAGCUCAAAACAGCGUGGCAAUUUGGCUGUGGCUAGACUGCC | 0.01 |
| GGCAAAGAUCAACAAAGCUUGGCAAAGUAGCUGUGGCUAGACGACC | 0.17 |
| GGCAGAGCUCACCACAGCCUAGCAAAGUGGCUGUGGCUAGACUGCC | 0.01 |
| GGAAGAGCUCAACACAGCGCGGCAAAGUGGCUGUGGGUAGACUGCC | 0.22 |
| GGCAGAGCUCAACACAGCAUGGUAAAGUGGCUGUGGCUAGACUGCA | 0.45 |
| GGCAGAGCUCAACACAGCGUGGCAAAGUGGAUGUGGCUAGGCUGCA | 0.03 |
| GGCAGAGCUCAACACAGCGUCACAAAGUGUAUGUGGCUAGCCUGCC | 0.03 |

| Variant | self-cleavage |
| --- | --- |
| GGCAAAGCUCAACACAGCGUGGCAAAGUGCCUGUGGCUUCACUGCC | 0.03 |
| GGCAGAGUUCAACACAUCGUGGGAAAGUGGCUGUGGCUAGACUGCA | 0.14 |
| GGCAGAGCUCAACACACCCUCGCAAAGCGGCUGUGGCUAGACUGGC | 0.04 |
| GGCAGAGCUCAACACAGCGCGGCAAAGUGGCUUUGGAUAGACUGCC | 0.06 |
| GGCCCAGCUCAACACGGCGUGGCAAAGUGGCUGUGGCUAGACUGCC | 0.09 |
| GGCAGUUCUCAACACAGCGUGGCAAAGUGGCUGUGGCUAGACUGUC | 0.05 |
| GUCAGAGCCCAACACAGGGUGGCAAAGUGGCUGUGGCUAGACCGCC | 0.01 |
| GGCAGAGCUCAACACACCGUGACAUAGAGGCUGUGGCUAGACUGCC | 0.71 |
| GACACAGCUCAACACAGCGUGGCAAUGUGGUUGCGGCUAGAUUGCC | 0.03 |
| GGCAGAGCUCAACACAGCGUGGCACAGUGGCUGAGGCUAGAAUGCC | 0.08 |
| GGCAGAGCUCAACACAGCGUGGCAAAGUGGCUGUGGCAAGUCUACC | 0.08 |
| GGCAGAGCUUAACAGAGCGUGGCAAAGAGGCUGUGGCUAUACUGCC | 0.01 |
| GGCAGAGCUCAACGCAGCGUGGCAAAGUAGCUGUGGCGAGACUGCC | 0.02 |
| GGAAGACCUCAACACAGCGUGCCAUAGUUGCUGUGGCUCGACUGCC | 0.03 |
| GGCAGAGCACAACACAGCGUGGCAAAGUGGUGGUGGCUAGACUGCC | 0.16 |
| GGCAGAGCUCAACACAGCGUGGCAAAGUGGCUGGGACUAGACUGUC | 0.06 |
| GGCACCGCUCAACACAGCGUGGCAAAGUGGUUCUGGCUAGACUGCC | 0.06 |
| CGCAGAGAUCAAUACAGUGUGGCAAAGUGGCUGUGGCUAUACUGCC | 0.02 |
| GGCAGAGCUCAACACAGCGUGGGAAAGUGCUUGCGGCUAGACUGCC | 0.04 |

| Variant | self-cleavage |
| --- | --- |
| GUCAGUGCUAAAAACACCGUGGCAAAGUGGUUUUGGCUAGACUGCC | 0 |
| GGCAGAGCUCACCACGCCGUGGCAAAGUAGCUGUGGCUAGACUGCC | 0.02 |
| GGCAGAGCUGAACACAGCGUGGCAAAGUGGUUGUUGCUAGACUGCC | 0.01 |
| GCCAGAGUUCAACACAGCGUGGCUAAGUGGCUGUGGCUAGACUGCC | 0.04 |
| GGCACAUCUCAACACAGCGUGGCAAAGUGACUAUGGCUAGACUGGC | 0.04 |
| GGCAGAGCUCAACCCAGCGUGGCAAAGUGUCUGUGGCUAGACCGCC | 0.03 |
| GGCAGAGCUAAACACAGCGUGGCAAAGUGGCUGUCGCUAAACUGCC | 0.01 |
| GGCAGAGCUUAAAACAGCGUGGCAAAGUGGCUGUGGUGAGACUUCC | 0.02 |
| GGCAGAGCUCAACACAGCGUGGCAAAGUGGCUGUUGUUAGAUUGCC | 0.31 |
| AGCAGAGCUAAACACAGCGUCGCAAAGUGGCUGUGGCUAGACUGUC | 0.02 |
| GGCAAAGCUCAACACAGCGUGGCAAAGUGGCUGUUACUAGACUGCC | 0.02 |
| GGCAGAGCUCAACACAGCGUGGCAAAGUGGCUAUGCCUAGAUUGCC | 0.02 |
| GGCAGAGCUCAAGAGAGCGUGGCAAAGCGGUUGUGGCUAGACUGCC | 0.03 |
| GGAAGAGCUCAACAGAGCGUGGCUAAGUGGCUGUGCCUAGGCUGCC | 0.09 |
| GGCAGAGCUCAAAACGGCGUGGCAAAGUGGCUGUGGCUAGACUGAC | 0.04 |
| GGCAGAGCUCAACUCAGCGUGGCGAAGUGGCUGUAGCUAGAUUGCC | 0.16 |
| GGCAGAGCUCAACUCAGCGUGGCAAAGUGGUUGUGGCGAGACUGCC | 0.02 |
| GGCAGAGCUCAAAACUGCGUGGCAAAGUGGCUGUGGUUAGACUGCC | 0.26 |
